Assay results: a collection of fitness landscapes (doi:10.1016/j.celrep.2020.107928)
Whole data set: some 81,000 sequences, median “one-hybrid fitness for binding parS DNA” near -0.17, cut for the highest 2% near 0.51. The list shows a part of the results.

B1: Caulobacter ParB omega fusion; a variant is named by its letters at X, in order, B8GW30 (parent)
chain: MESVVVGEPGMSEGRRGLGRGLSALLGEVDAAPAQAPGEQLGGSREAPIEILQRNPDQPRRTFREEDLEDLSNSIREKGVLQPILVRPSPDTAGEYQIVAGERAWRAAQRAGLKTVPIMVRELDDLAVLEIGIIENVQRADLNVLEEALSYKVLMEKFERTQENIAQTIGKSXSHVANXMRLLXLPDEVQSYLVSGELTAXHARAIAAAADPVALAKQIIEGGLSVRETEALARKAPNLSAGKSKGGRPPRVKDTDTQALESDLSSVLGLDVSIDHRGSTGTLTITYATLEQLDDLCNRLTRGI

Variants of: B1
Experiment: one-hybrid fitness for binding parS DNA (scaled: cognate 1, non-cognate 0); higher = stronger binding
Conditions: with parS DNA site
Method in brief: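 Pre- and post-selection plasmids were Illumina-sequenced, three replicate libraries were pooled, and any variant with under 10 reads was removed. The libraries were Caulobacter ParB with four specificity codons randomised, selected in E. coli USO through a HIS3 reporter whose site is 19 bp from the promoter. Cells grew 48 hours at 37°C on M9 without histidine, with 0.1 mM IPTG and 5 mM 3-AT. Fitness is the log change in variant-to-wild-type read ratio, rescaled against cognate and non-cognate.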

Variant	one-hybrid fitness for binding parS DNA
NTCL	≤ 0.2
RKCE	≤ 0.2
SLAM	≤ 0.2
SLTN	≤ 0.2
YKRW	≤ 0.2
TRVI	≤ 0.2
APPG	≤ 0.2
RMIF	0.248
KAWS	≤ 0.2
RIWC	0.936
HDLM	≤ 0.2
LIYC	≤ 0.2
NDTI	≤ 0.2
LFNC	≤ 0.2
YEVP	≤ 0.2
QIVN	≤ 0.2
SHRV	≤ 0.2
SMHN	≤ 0.2
DNGT	≤ 0.2
TCDP	≤ 0.2
LGLY	≤ 0.2
NPST	≤ 0.2
QLFY	≤ 0.2
SLRE	≤ 0.2
MHRS	≤ 0.2

Variant	one-hybrid fitness for binding parS DNA
RSQV	≤ 0.2
CQQT	≤ 0.2
LKDR	≤ 0.2
WEHT	≤ 0.2
HSQM	≤ 0.2
HPLF	≤ 0.2
TSQQ	≤ 0.2
CKKC	≤ 0.2
RKGH	≤ 0.2
FCLC	≤ 0.2
CGLK	≤ 0.2
VERP	≤ 0.2
TDLS	≤ 0.2
WKKG	≤ 0.2
HMWS	≤ 0.2
HTHP	≤ 0.2
RTKD	≤ 0.2
TYPC	≤ 0.2
LNES	≤ 0.2
EYHC	≤ 0.2
PYKT	≤ 0.2
QMNY	≤ 0.2
VQYG	≤ 0.2
YLAQ	≤ 0.2
GPIC	≤ 0.2

Variant	one-hybrid fitness for binding parS DNA
WING	≤ 0.2
TMWS	≤ 0.2
HARR	≤ 0.2
RHMT	0.87
QPRW	≤ 0.2
RLYA	0.607
TFSW	≤ 0.2
RARN	0.419
TIKA	≤ 0.2
RVLF	0.259
CCYG	≤ 0.2
STMG	≤ 0.2
RGAA	0.32
ATPN	≤ 0.2
APWC	≤ 0.2
RRRN	0.788
LQKD	≤ 0.2
LRIM	≤ 0.2
AIYR	≤ 0.2
LGDQ	≤ 0.2
FNHR	≤ 0.2
QVAW	≤ 0.2
SSPM	≤ 0.2
WCKT	≤ 0.2
TRVG	≤ 0.2

Variant	one-hybrid fitness for binding parS DNA
HIQG	≤ 0.2
ESPS	≤ 0.2
PVVE	≤ 0.2
ETIM	≤ 0.2
SSNV	≤ 0.2
DESI	≤ 0.2
EAGA	≤ 0.2
DDTL	≤ 0.2
YQKR	≤ 0.2
IGPS	≤ 0.2
YFTC	≤ 0.2
KITW	≤ 0.2
FQSN	≤ 0.2
EDMR	≤ 0.2
RYLG	0.986
RVWA	0.616
KVEE	≤ 0.2
QNWT	≤ 0.2
RSAR	≤ 0.2
TIHF	≤ 0.2
RWGN	≤ 0.2
RYAR	≤ 0.2
